Measured values published in the antibiotic and cytotoxicity screens of Wong et al. (2023).
The other results are listed elsewhere or left out.

System: HSkMC (human skeletal muscle cells)
Test: cytotoxicity call (relative viability < 0.9)
Conditions: 10 µM

Structure (SMILES)	cytotoxicity call
Cc1cc(C)c(NC(=O)CN(CC(=O)O)CC(=O)O)c(C)c1Br	inactive
Clc1ccc(C(c2ccccc2Cl)C(Cl)Cl)cc1 (stereo not given)	inactive
CCCCC(CC)COC(=O)CC(C(=O)OCC(CC)CCCC)S(=O)(=O)[O-].[Na+] (stereo not given)	inactive
Cc1noc(C)c1NC(=O)N(C)C[C@H]1Oc2c(NC(=O)C3CC3)cccc2C(=O)N([C@H](C)CO)C[C@@H]1C	inactive
C[C@@H]1CN([C@H](C)CO)C(=O)c2cc(NC(=O)CCC(F)(F)F)ccc2O[C@H]1CN(C)Cc1ccc(Oc2ccccc2)cc1	inactive
COc1cc(-c2coc3cc(O[C@@H]4O[C@H](CO)[C@@H](O)[C@H](O)[C@H]4O)c(OC)c(O)c3c2=O)cc(O)c1OC	inactive
C[C@H]1CN([C@@H](C)CO)C(=O)c2cccc(NC(=O)Nc3ccc4c(c3)OCO4)c2O[C@@H]1CN(C)Cc1ccc(C(=O)Nc2ccccc2N)cc1	inactive
O=C(NCCN1CCOCC1)C(=O)NC[C@H]1COc2ccccc2O1	inactive
CCS(=O)(=O)Nc1ccc2c(c1)C(=O)N(C)[C@@H]1CC[C@@H](CC(=O)NCCCN3CCOCC3)O[C@@H]1CO2	inactive
CO[C@@H]1CN(C)C(=O)c2ccc(NC(C)=O)cc2OC[C@H](C)N(S(=O)(=O)c2cn(C)cn2)C[C@H]1C	inactive
C[C@@H]1CN([C@@H](C)CO)C(=O)Cc2cc(NC(=O)CCCN(C)C)ccc2O[C@H]1CN(C)Cc1ccncc1	inactive
CCS(=O)(=O)N1CC[C@]2(CN(c3cnn(C)c3)C(=O)CN2C(C)=O)C1	inactive
CC(C)C[C@@H]1C(=O)O[C@H](C)C(=O)N(C)[C@@H](CC(C)C)C(=O)O[C@H](Cc2ccc(N3CCOCC3)cc2)C(=O)N(C)[C@@H](CC(C)C)C(=O)O[C@H](C)C(=O)N(C)[C@@H](CC(C)C)C(=O)O[C@H](Cc2ccc(N3CCOCC3)cc2)C(=O)N1C	active
O=C(C[C@@H]1CC=CCC[C@@H](Cc2ccc(F)cc2)C(=O)OC[C@@H](Cc2c[nH]c3ccccc23)NC1=O)N[C@@H](CO)Cc1ccccc1	inactive
COc1ccc(S(=O)(=O)N(C)C[C@H]2Oc3ccc(NC(=O)Nc4c(C)noc4C)cc3C(=O)N([C@H](C)CO)C[C@@H]2C)cc1	inactive
C#CCN1[C@H](/C=C/C2CC2)[C@H](Cc2ccccc2)OC(=O)[C@@H]1Cc1ccc(-n2cc(COc3ccccc3/C=C(C)/C=C/C(=O)NO)nn2)cc1	inactive
C[C@H](CO)N1C[C@H](C)[C@H](CN(C)S(C)(=O)=O)Oc2ncc(C#CC3(O)CCCC3)cc2C1=O	inactive
COc1cccc(NC(=O)N[C@@H]2C=C[C@H](CC(=O)N3CCN(C)CC3)O[C@@H]2CO)c1	inactive
CCCNC(=O)N1C[C@H](C)[C@H](OC)CN(C)C(=O)c2ccc(NS(=O)(=O)CC(F)(F)F)cc2OC[C@H]1C	inactive
C[C@H](CO)N1C[C@H](C)[C@H](CN(C)C(=O)Nc2ccc(C(F)(F)F)cc2)OCCCC[C@H](C)Oc2ccc(NC(=O)c3ccccc3)cc2C1=O	inactive

Structure (SMILES)	cytotoxicity call
C[C@H](CO)N1C[C@H](C)[C@H](CN(C)C(=O)CN(C)C)Oc2cc(C#C[C@@H](C)O)ccc2S1(=O)=O	inactive
C[C@@H]1CN([C@H](C)CO)C(=O)c2cccc(NC(=O)c3cnccn3)c2O[C@@H]1CN(C)S(=O)(=O)c1cn(C)cn1	inactive
COc1cccc(-c2cn(CC[C@H]3CC[C@H](NC(=O)CN(C)C)[C@H](CO)O3)nn2)c1	inactive
Cc1cc(C=Cc2ccc3cc(N(C)C)ccc3[n+]2C)c(C)n1-c1ccccc1.O=C([O-])c1cc2ccccc2c(Cc2c(O)c(C(=O)O)cc3ccccc23)c1O	active
C[C@@H]1CCCCO[C@@H](CN(C)C(=O)Nc2ccc3c(c2)OCO3)[C@@H](C)CN([C@H](C)CO)C(=O)c2cc(NC(=O)CCC(F)(F)F)ccc2O1	inactive
C[C@@H]1CN([C@@H](C)CO)C(=O)c2cc(NC(=O)Cc3cn(C)c4ccccc34)ccc2O[C@H]1CN(C)C(=O)Nc1ccc(C(F)(F)F)cc1	inactive
NCc1cccc(-c2ccccc2)c1	inactive
C[C@@H]1CN([C@H](C)CO)C(=O)c2cccc(NC(=O)C3CCOCC3)c2O[C@H]1CN(C)S(=O)(=O)c1ccc(F)cc1	inactive
C[C@@H]1CCCCO[C@H](CN(C)S(=O)(=O)c2ccc(Cl)cc2)[C@H](C)CN([C@H](C)CO)C(=O)c2cc(NC(=O)CCC(F)(F)F)ccc2O1	inactive
Cc1noc(C)c1NC(=O)Nc1ccc2c(c1)C(=O)N([C@@H](C)CO)C[C@H](C)[C@H](CN(C)C(=O)NC1CCCCC1)OCCCC[C@@H](C)O2	inactive
C[C@@H]1CC[C@]2(C(=O)O[C@@H]3O[C@H](CO)[C@@H](O)[C@H](O)[C@H]3O)CC[C@]3(C)C(=CC[C@H]4[C@@]5(C)C[C@@H](O)[C@H](O)[C@@](C)(CO)[C@@H]5CC[C@]43C)[C@@H]2[C@]1(C)O	inactive
C[C@@H]1CCCCO[C@@H](CN(C)C(=O)Nc2ccccc2)[C@H](C)CN([C@@H](C)CO)C(=O)c2cc(NC(=O)Nc3ccc(C(F)(F)F)cc3)ccc2O1	inactive
Cc1cc(NC(=O)[C@@H]2CCCN2)no1	inactive
CN(C)S(=O)(=O)n1nnc2ccccc21	inactive
Cc1noc(C)c1S(=O)(=O)N(C)C[C@H]1Oc2ccc(NC(=O)Cc3cn(C)c4ccccc34)cc2CC(=O)N([C@@H](C)CO)C[C@@H]1C	inactive
Cc1ccccc1-c1ccc2c(c1)O[C@@H](CN(C)C(=O)Nc1ccc(C(F)(F)F)cc1)[C@@H](C)CN([C@H](C)CO)S2(=O)=O	inactive
C[C@H](CO)N1C[C@H](C)[C@H](CN(C)CC2CC2)Oc2ccc(NS(=O)(=O)c3cn(C)cn3)cc2C1=O	inactive
C[C@@H]1CCCCO[C@H](CN(C)Cc2ccc3c(c2)OCO3)[C@@H](C)CN([C@H](C)CO)C(=O)c2cc(NS(=O)(=O)c3ccccc3)ccc2O1	inactive
C[C@@H]1CCCCO[C@@H](CN(C)C(=O)Nc2ccc(C(F)(F)F)cc2)[C@H](C)CN([C@@H](C)CO)C(=O)c2cc(NS(=O)(=O)c3cn(C)cn3)ccc2O1	inactive
COc1ccc(C2COc3c(ccc(O)c3OC)C2)c(OC)c1O (stereo not given)	inactive
